Results are given in words; binding and its absence hold for the method and conditions named. In cells and extracts the contact can be indirect. Some binding calls cover weakened binding; strength is not graded here. Where a sequence is shown, tags or fusion partners need not be part of it.
T1: FLAG-SOCS2 with a point mutation in the SOCS-box at C167F (UniProt O35717)
T1 sequence: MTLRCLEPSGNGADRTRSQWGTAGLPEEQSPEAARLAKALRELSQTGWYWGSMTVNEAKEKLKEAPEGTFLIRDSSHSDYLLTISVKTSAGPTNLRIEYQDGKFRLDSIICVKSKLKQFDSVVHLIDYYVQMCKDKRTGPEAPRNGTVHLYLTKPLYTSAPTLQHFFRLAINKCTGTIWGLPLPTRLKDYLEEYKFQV

Protein sequences, listed by entry. Tags and fused reporters are not part of them.
UniProt Q9UBF6: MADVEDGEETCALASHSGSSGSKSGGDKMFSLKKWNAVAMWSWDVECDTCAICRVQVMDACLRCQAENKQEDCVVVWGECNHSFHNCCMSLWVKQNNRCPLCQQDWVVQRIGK
UniProt Q15370: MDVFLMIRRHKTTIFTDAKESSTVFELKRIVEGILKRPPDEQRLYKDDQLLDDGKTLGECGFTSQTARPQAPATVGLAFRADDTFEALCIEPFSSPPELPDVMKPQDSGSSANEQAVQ
UniProt Q93034: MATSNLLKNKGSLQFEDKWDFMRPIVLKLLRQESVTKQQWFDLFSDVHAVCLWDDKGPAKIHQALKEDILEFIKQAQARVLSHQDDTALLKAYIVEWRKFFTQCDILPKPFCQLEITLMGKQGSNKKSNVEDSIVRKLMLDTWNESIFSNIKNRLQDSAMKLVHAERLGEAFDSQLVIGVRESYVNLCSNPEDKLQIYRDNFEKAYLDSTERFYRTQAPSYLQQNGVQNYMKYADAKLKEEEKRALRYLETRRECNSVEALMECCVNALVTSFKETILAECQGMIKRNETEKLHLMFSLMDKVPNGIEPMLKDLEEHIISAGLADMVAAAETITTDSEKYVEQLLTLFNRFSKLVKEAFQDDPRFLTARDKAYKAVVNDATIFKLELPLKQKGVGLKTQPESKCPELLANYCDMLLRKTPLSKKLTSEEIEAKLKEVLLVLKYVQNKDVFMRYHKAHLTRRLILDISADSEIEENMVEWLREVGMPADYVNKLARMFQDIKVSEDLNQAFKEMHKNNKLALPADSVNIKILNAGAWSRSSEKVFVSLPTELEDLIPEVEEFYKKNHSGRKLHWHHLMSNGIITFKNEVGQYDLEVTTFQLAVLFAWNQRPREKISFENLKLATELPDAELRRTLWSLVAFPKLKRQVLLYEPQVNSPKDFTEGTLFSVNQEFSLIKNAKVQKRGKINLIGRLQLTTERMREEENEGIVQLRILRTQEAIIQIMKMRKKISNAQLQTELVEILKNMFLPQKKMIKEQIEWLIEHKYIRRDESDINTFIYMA

T2: FLAG-SOCS2 lacking the 37 amino acid N-terminus (UniProt O35717)
T2 sequence: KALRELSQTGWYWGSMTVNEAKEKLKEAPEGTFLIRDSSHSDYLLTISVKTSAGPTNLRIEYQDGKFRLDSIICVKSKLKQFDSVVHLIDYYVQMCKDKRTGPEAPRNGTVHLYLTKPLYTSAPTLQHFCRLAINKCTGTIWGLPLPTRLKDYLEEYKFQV

T3: FLAG-SOCS2 lacking the 39 amino acid C-terminus corresponding to the SOCS-box (UniProt O35717)
T3 sequence: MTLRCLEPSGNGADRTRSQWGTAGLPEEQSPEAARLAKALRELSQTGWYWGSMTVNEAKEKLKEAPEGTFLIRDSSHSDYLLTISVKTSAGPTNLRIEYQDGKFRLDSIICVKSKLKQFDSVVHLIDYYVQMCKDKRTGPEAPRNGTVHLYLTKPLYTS

T4: FLAG-SOCS2 with a point mutation in the SH2-domain at R73E (UniProt O35717)
T4 sequence: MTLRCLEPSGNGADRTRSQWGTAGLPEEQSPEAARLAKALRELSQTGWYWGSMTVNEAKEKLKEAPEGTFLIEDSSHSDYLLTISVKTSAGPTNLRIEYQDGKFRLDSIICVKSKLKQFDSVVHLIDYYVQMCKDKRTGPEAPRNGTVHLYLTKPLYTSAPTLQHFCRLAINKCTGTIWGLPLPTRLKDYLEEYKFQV

T5: FLAG-SOCS2 with a point mutation in the SOCS-box at L163P (UniProt O35717)
T5 sequence: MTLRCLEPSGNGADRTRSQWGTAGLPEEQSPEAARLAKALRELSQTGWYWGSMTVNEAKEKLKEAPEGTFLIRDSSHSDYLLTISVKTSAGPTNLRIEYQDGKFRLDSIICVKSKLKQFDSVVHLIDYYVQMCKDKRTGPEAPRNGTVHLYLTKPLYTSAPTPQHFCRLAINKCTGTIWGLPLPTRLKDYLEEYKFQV

T6: FLAG-SOCS2 (suppressor of cytokine signalling 2, wild type) (UniProt O35717)
T6 sequence: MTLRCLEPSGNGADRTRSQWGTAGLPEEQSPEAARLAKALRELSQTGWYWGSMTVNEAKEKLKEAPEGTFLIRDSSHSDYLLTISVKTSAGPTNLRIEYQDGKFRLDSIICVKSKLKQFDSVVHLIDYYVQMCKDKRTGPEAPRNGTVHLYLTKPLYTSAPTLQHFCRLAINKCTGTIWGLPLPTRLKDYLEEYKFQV


Experiments:
[1] = target: T1, FLAG-SOCS2 with a point mutation in the SOCS-box at C167F; assay: co-IP; HEK293T transfected with Elongin B, Elongin C, Myc-Cullin5 and FLAG-SOCS2 wild type or mutant; FLAG-SOCS2 precipitated with FLAG-conjugated agarose beads 1 h at 4 °C from lysate (50 mM Tris HCl pH 7.5, 150 mM NaCl, 5 mM EDTA, 0.5% Igepal-40); Western blot of the precipitates
[2] = target: T2, FLAG-SOCS2 lacking the 37 amino acid N-terminus; assay: as above
[3] = target: T3, FLAG-SOCS2 lacking the 39 amino acid C-terminus corresponding to the SOCS-box; assay: as above
[4] = target: T4, FLAG-SOCS2 with a point mutation in the SH2-domain at R73E; assay: as above
[5] = target: T5, FLAG-SOCS2 with a point mutation in the SOCS-box at L163P; assay: as above
[6] = target: T6, FLAG-SOCS2 (suppressor of cytokine signalling 2, wild type); assay: as above
[7] = target: T3, FLAG-SOCS2 lacking the 39 amino acid C-terminus corresponding to the SOCS-box; assay: co-IP; HEK293T transfected with Elongin B/C, FLAG-SOCS2 or a mutant and Myc-GHR; cells starved and treated with GH for 0 or 10 minutes before lysis; immunoprecipitation as in the methods, GHR detected with anti-Myc antibody
[8] = target: T4, FLAG-SOCS2 with a point mutation in the SH2-domain at R73E; assay: as above
[9] = target: T6, FLAG-SOCS2 (suppressor of cytokine signalling 2, wild type); assay: as above

| Molecule | binding [1] | binding [2] | binding [3] | binding [4] | binding [5] | binding [6] | binding [7] | binding [8] | binding [9] |
| --- | --- | --- | --- | --- | --- | --- | --- | --- | --- |
| Ring-box protein 2 (Rbx2) (from UniProt Q9UBF6 1-113) | no binding | binds | no binding | binds | no binding | binds |  |  |  |
| Elongin B (from UniProt Q15370 1-118) | no binding | binds | no binding | binds | no binding | binds |  |  |  |

Results, then the molecule that gave them:

| binding [1] | binding [2] | binding [3] | binding [4] | binding [5] | binding [6] | binding [7] | binding [8] | binding [9] | Molecule |
| --- | --- | --- | --- | --- | --- | --- | --- | --- | --- |
| no binding | binds | no binding | binds | no binding | binds |  |  |  | Myc-Cullin5 (from UniProt Q93034 1-780) |
|  |  |  |  |  |  | binds | binds weakly | binds | Myc-Growth Hormone Receptor (receptor, UniProt P16310 19-638) FPGSGATPATLGKASPVLQRINPSLRESSSGKPRFTKCRSPELETFSCYWTEGDDHNLKVPGSIQLYYARRIAHEWTPEWKECPDYVSAGANSCYFNSSYTSIWIPYCIKLTTNGDLLDEKCFTVDEIVQPDPPIGLNWTLLNISLPGIRGDIQVSWQPPPSADVLKGWIILEYEIQYKEVNETKWKTMSPIWSTSVPLYSLRLDKEHEVRVRSRQRSFEKYSEFSEVLRVTFPQMDTLAACEEDFRFPWFLIIIFGIFGVAVMLFVVIFSKQQRIKMLILPPVPVPKIKGIDPDLLKEGKLEEVNTILGIHDNYKPDFYNDDSWVEFIELDIDDADEKTEESDTDRLLSDDQEKSAGILGAKDDDSGRTSCYDPDILDTDFHTSDMCDGTSEFAQPQKLKAEADLLCLDQKNLKNSPYDASLGSLHPSITLTMEDKPQPLLGSETESTHQLPSTPMSSPVSLANIDFYAQVSDITPAGGVVLSPGQKIKAGLAQGNTQLEVAAPCQENYSMNSAYFCESDAKKCIAAAPHMEATTCVKPSFNQEDIYITTESLTTTARMSETADTAPDAEPVPDYTTVHTVKSPRGLILNATALPLPDKKKFLSSCGYVSTDQLNKIMQ |
